Laboratory results as given in article PMC6919601, “Identification of Plasmodium dipeptidyl aminopeptidase allosteric inhibitors by high throughput screening” (PLoS ONE, 2019).
The whole screen tested about 110,000 compounds, of which about 230 (0.21%) showed an effect of 50% or more. The list shows a part of the results.

These molecules were tested against DPAP1 (Plasmodium falciparum, UniProt Q8IIJ9) (assay: primary screen, percent inhibition; read by cleavage of a fluorogenic dipeptide substrate; higher = more effect of the substance).
Set-up: species or system P. falciparum D10 trophozoite lysates; single well
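Further: 30 min substrate incubation versus DMSO and 10 µM JCP410 controls.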

DPAP1, sequence (Q8IIJ9 whole entry, looked up): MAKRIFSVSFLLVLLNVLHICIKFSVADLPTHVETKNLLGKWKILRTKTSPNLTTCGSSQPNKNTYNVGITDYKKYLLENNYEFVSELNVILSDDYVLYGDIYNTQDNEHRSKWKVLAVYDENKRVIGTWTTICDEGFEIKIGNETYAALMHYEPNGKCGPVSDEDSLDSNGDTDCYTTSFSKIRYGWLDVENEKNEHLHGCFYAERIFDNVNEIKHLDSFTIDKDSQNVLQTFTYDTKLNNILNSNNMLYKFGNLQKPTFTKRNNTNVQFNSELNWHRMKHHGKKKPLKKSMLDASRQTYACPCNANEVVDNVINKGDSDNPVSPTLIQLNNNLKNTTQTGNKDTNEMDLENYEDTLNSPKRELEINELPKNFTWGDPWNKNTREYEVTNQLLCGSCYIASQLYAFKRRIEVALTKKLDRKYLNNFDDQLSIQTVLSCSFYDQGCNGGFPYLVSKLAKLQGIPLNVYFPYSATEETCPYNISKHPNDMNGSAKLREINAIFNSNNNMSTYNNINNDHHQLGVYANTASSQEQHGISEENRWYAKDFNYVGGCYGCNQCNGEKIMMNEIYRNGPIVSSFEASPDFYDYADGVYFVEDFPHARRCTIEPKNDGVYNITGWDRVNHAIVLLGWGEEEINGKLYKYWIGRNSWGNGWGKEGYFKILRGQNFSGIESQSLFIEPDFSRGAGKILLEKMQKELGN

Point of comparison: `CCc1ccccc1NC(=O)c1cc2ccccc2cc1O`, “% Inhibition @ 10 uM” value -0.231%. Against it:
- Cc1ccccc1NC(=O)NCc1ccccn1 — lower, -8.38%
- CC(C)NC(=O)Cn1cc(C(=O)C(C)(C)C)c2ccccc21 — higher, 0.0289%
- CC(C)Nc1nn2nnnc2c2ccccc12 — lower, -4.32%
- COc1cc(-n2c(C)nc3cc(C(=O)NCc4ccco4)ccc32)cc(OC)c1OC — lower, -0.458%
- CN1C2CCC1CC(O)(c1ccccc1)C2 (stereo not shown) — lower, -1.77%
- Cc1ccccc1Cn1cnc2ccccc2c1=O — lower, -8.88%
- COc1ccc2nc(N/C=C3\C(=O)N(C)C(=O)C(C#N)=C3C)sc2c1 — lower, -2.77%
- Cc1onc(-c2c(Cl)cccc2Cl)c1C(=O)Nc1ccc(O)cc1 — higher, 1.05%
- COc1ccccc1OCC(=O)Nc1ccc(S(=O)(=O)Nc2cc(C)cc(C)c2)cc1 — higher, 4.53%
- OC1CCCCC1CN(Cc1ccccc1)Cc1ccccc1 (stereo not shown) — higher, 0.986%
- Cc1ccc(C)c(N2C(=O)C3C4CCC(C4)C3C2=O)c1 (stereo not shown) — lower, -4.84%
- Cc1nc2ccccc2c2c1C(=O)N(C(c1ccccc1)c1ccccc1)C2=O — higher, 2.64%
- OCC1CCCCN1C(=S)NCc1ccccc1 (stereo not shown) — lower, -4.35%
- Cc1cc(C(=O)Nc2cccc(-c3nc4ccccc4o3)c2)ccc1[N+](=O)[O-] — lower, -2.51%
- CCC(C)Cn1c(COC)nc2ccccc21 (stereo not shown) — lower, -0.551%
- O=S(=O)(Cc1ccc(F)cc1)c1oc(-c2cccs2)nc1S(=O)(=O)c1ccccc1 — lower, -1.22%
- CC1CCN(S(=O)(=O)c2ccc3c(ccn3CCC(=O)N3CCN(c4ccccn4)CC3)c2)CC1 — lower, -2.18%
- CCc1c(-c2ccccc2)nc2ccccc2c1C(=O)NCCCOC — lower, -0.519%
- CCc1ccccc1NC(=O)c1cccc([N+](=O)[O-])c1 — lower, -3.13%
- CCOc1ccc(NS(=O)(=O)c2ccc(NC(=O)c3ccc(OC)cc3)cc2)cc1 — lower, -11.4%
- CC(=O)C1=C(C)NC(c2ccc(Cl)cc2Cl)NC1c1ccc(Cl)cc1Cl (stereo not shown) — higher, 6.7%
- CCOC(=O)c1oc2ccc(OC)cc2c1NC(=O)CN1CCN(C)CC1 — higher, 3.34%
- CCC1CCc2c(sc(NC(=O)c3ccco3)c2C(N)=O)C1 (stereo not shown) — higher, 0.206%
- COc1ccc(C(=O)N2CCCCCC2)cc1OC — higher, 4.73%
- COc1cc(CN2CCN(C(=O)COc3ccccc3)CC2)cc(OC)c1O — lower, -7.23%
- C[C@@H](C[C@H](NC(=O)c1ccc(-c2ccccc2Cl)cc1)C(=O)NC1(C#N)CCS(=O)(=O)CC1)c1ccccc1 — lower, -1.82%
- COc1cccc(C2Oc3ccccc3C3CC(c4cccs4)=NN32)c1OCC(=O)O (stereo not shown) — higher, 23.4%
